In PubChem BioAssay AID1346378 (National Center for Advancing Translational Sciences (NCATS), 2018):
Screen size: about 420,000 compounds; about 540 (0.13%) were called active. This list was built around the results that the source calls inconclusive (neither active nor inactive); the mix of calls is not that of the screen. Cut-off read from the data, not from the text of the source: active = activity change below about -50%; inconclusive = mostly about -30% to -49%; inactive = weaker than that.

The compounds below were run against Phosphatidylinositol 4-kinase type 2-alpha (Homo sapiens) (UniProt Q9BTU6) (assay: qHTS for small molecular inhibitors of PI4K2A). Details: purified PI4K2A, ADP-Glo luminescence, 1 h; at 76.9 µM, stronger effect = lower value.
UniProt Q9BTU6, sequence (Q9BTU6 whole entry, looked up): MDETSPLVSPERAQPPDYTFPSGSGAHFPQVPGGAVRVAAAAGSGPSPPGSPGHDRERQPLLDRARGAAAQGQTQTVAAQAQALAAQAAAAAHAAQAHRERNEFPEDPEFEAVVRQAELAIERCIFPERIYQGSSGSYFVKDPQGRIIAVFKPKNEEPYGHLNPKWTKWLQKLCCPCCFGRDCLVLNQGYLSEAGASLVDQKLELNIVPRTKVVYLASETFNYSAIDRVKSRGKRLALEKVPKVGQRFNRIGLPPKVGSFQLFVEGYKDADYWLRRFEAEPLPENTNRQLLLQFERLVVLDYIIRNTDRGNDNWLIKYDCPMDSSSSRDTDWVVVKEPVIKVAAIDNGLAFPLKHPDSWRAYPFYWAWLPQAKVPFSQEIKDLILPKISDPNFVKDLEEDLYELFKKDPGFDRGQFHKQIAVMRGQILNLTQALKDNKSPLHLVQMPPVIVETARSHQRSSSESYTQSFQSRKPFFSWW
Description: The phosphatidylinositol 4-phosphate (PI4P) is emerging as a key regulator of lipid transfer in ER-membrane contact sites. The four different phosphatidylinositol 4-kinase (PI4K) enzymes generate PI4P in different membrane compartments supporting distinct cellular processes many of which are crucial for the maintenance of cellular integrity but also hijacked by intracellular pathogens. The goal of this screening project is to search for small molecular inhibitors of PI4K2A based on a high throughput screening strategy.The ADP-Glo assay was used as a starting point to develop a miniaturized version for HTS applications. To implement the HTS screen, the PI4K ADP-Glotrade mark Kinase assay (Promega, V9102) was miniaturized for the 1536-well format used at NCGC.
For the robotic screening, the ADP-Glo assay using the ADP-Glotrade mark Kinase Assay kit from Promega was miniaturized and optimized on 1536-well white solid bottom plates (Greiner Bio-one). The substrate, 1.2 mM PI, prepared in the assay buffer (40mM Tris pH7.5, 20mM MgCl2, 1mM EGTA, 0.4% Triton X-100, 0.5mM DTT, 0.5mg/ml BSA) and PI4K2A enzyme, diluted also in the assay buffer to 4ug/mL, were dispensed onto the plates in equal volumes (1microl/well), pinned with 23 nL/well tested compounds or control followed by dispensation of 1microl/well 300microM ATP. The plates were incubated for one hour. Then, 2 µL/well of ADP-Glo reagent was added and incubated for 40 minutes. Next, 4microL/well of Kinase Detection Buffer was added to the plates and incubated for additional 40 minutes. All incubation steps were performed at ambient temperature. The resulting luminescence signal was measured on Viewlux plate reader (PerkinElmer). Adenosine, a partial non-specific inhibitor, was used as a positive control at 100microM final concentration to assess the assay's quality and plate-to-plate reproducibility. We also used "no enzyme" control to gauge the assay's maximal potential inhibition (IC100).
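Note: -100% = wells without enzyme as full effect.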

Activity change, negative = inhibition, inconclusive:
Cc1n[nH]c(=O)nc1N/N=C/c1ccco1 -42.1%
O=c1[nH]c(CCl)nc2cc(-c3ccc(F)cc3)sc12 -47.7%
CC1CCN(C(=O)Nc2ccc3nsnc3c2)CC1 -30.7%
Cc1ccc(C(=O)ONc2ccc(N=O)cc2)cc1 -35.5%
COc1ccc(-c2cn3ccccc3n2)cc1 -32%
COc1ccccc1Nc1cc2cc(Br)ccc2c(=O)[nH]1 -42.5%
CCOC(=O)C1CCN(C(=O)Nc2ccc3nc(-c4ccco4)c(-c4ccco4)nc3c2)CC1 -45.6%
O=C(O)CC(C(=O)O)N1C(=O)/C(=C/C=C/c2ccco2)SC1=S (configuration not stated) -48.7%
COc1cccc(/C=N/Nc2ncccc2[N+](=O)[O-])c1OC -39.1%
COC(=O)/C(=C/Nc1ccc(O)cc1)[N+](=O)[O-] -42.2%
CCOC(=O)c1nn(-c2ccc(C)c(C)c2)c(=O)c2c(N)scc12 -30.9%
CCCCCC(=O)Nc1ccc(N2CCN(C(=O)CCC)CC2)cc1 -46.5%
COc1ccc2nc(-c3ccccc3)[nH]c2c1 -30.3%
O=C(O)c1ccccc1Nc1cc(Cl)c2nonc2c1[N+](=O)[O-] -49.8%
CCCc1cc(=O)oc2cc(C)c(CN3CCCC3)c(O)c12 -31.9%
O=C(O)CSc1cc(NS(=O)(=O)c2cccc([N+](=O)[O-])c2)c2ccccc2c1O -43.8%
COC(=O)C1=C(CSc2nc3c(cc2C#N)CN(C)CC3)OC(N)=C(C#N)C1c1ccc(F)cc1 (configuration not stated) -36.3%
COc1ccc2cc(-c3ccccc3F)ncc2c1 -35.4%
C/C(CC(=O)Nc1ccccn1)=N\NC(=O)c1cccc(C)c1 -35.6%
COc1ccc(C[C@@H]2OC3(C=CC(=O)C=C3)O[C@H]2Cc2ccc(OC)cc2)cc1 -44.5%
O=C(NC1CCCC1)c1ccc2nc(-c3ccco3)c(-c3ccco3)nc2c1 -36.9%
O=C(NCc1ccc(Cl)cc1)C(=O)NCC1OCCN1C(=O)c1ccc(Cl)cc1 (configuration not stated) -38.7%
Cc1ccc(-c2nc3ccccc3[nH]2)s1 -47.2%
Nc1c(O)cccc1C(=O)O -33.1%
N#Cc1c(N2CCCC2)nc(N)c2c(N)nc(N3CCCC3)cc12 -37%
O=C(CC(NCc1ccccn1)C(=O)O)Nc1ccccc1Cl (configuration not stated) -31.2%
O=c1nc2s/c(=C\c3ccco3)c(=O)n2nc1Cc1ccc(F)cc1 -34.9%
NS(=O)(=O)c1ccc(CCNC(=O)c2ccc(-c3ccccc3)cc2)cc1 -30.9%
CC1CCC/C(=C\Nc2ccc(O)cc2)C1=O (configuration not stated) -41.8%
COc1ccc2ccc3c(c2c1)N=CC1(O3)N(C)c2ccccc2C1(C)C (configuration not stated) -49%
CN(C(=S)Nc1ccc(SC(F)F)cc1)c1ccc(O)cc1 -43.2%
COc1cc(/C=C/c2sc3ccccc3[n+]2CCCS(=O)(=O)[O-])ccc1O -45.6%
CCN(CC)c1ccc2c(-c3ccc(S(=O)(=O)O)cc3S(=O)(=O)[O-])c3ccc(=[N+](CC)CC)cc-3oc2c1 -42.6%
Fc1cccc(/C=N/Nc2nccnc2Cl)c1 -39.4%
COCCCNC1=C(C#N)C(=O)NC(c2cccc([N+](=O)[O-])c2)S1 (configuration not stated) -37.1%
Oc1cccc(-c2nc3ccccc3s2)c1 -33.2%
CCc1ccc(NC2=CC(=O)C(=O)c3ccccc32)cc1 -42.7%
Nc1ncnc2c1nc(N1CCCCC1)n2[C@@H]1O[C@H](CO)[C@@H](O)[C@H]1O -44.2%
O=C(Nc1ccc(S(=O)(=O)Nc2nccs2)cc1)c1cc(-c2ccncc2)nc2ccccc12 -34.3%
OCCN(Cc1cccnc1)Cc1ccccn1 -32.2%
CC(C)Cn1cc(NC(=O)NCc2cccc(Cl)c2)c2ccccc2c1=O -41.2%
Cc1cc(C(=O)COC(=O)Cc2c(F)cccc2Cl)c(C)n1C -45.9%
O=[N+]([O-])c1cc2ccccc2c(O)c1O -39.7%
Cc1cc(=O)n(C2CCS(=O)(=O)C2)[nH]1 (configuration not stated) -36%
O=C1CSC(=NC2CCCCC2)N1 -30.9%
Cc1cc(N2CCCCC2)nc(SCC(=O)c2ccccc2)n1 -34.2%
CCOc1cc(NC(=O)CCl)c(OCC)cc1NC(=O)CCl -35%
CCCS(=O)(=O)c1cnc(C2COc3ccccc3O2)nc1N (configuration not stated) -47.4%
O=C(O)c1cccc(S(=O)(=O)Nc2ccc3oc(=O)sc3c2)c1 -38.4%
CCCn1cnc2c(=S)nc(N)[nH]c21 -30.7%
Cc1occc1C(=O)O/N=C(\N)c1ccccc1 -46.8%
CCOc1ccc(NC2=CC(=O)C(=O)c3ccccc32)cc1 -48.2%
Cc1occc1C(=O)NCc1cccc(CNC(=O)c2ccoc2C)c1 -42.8%

Activity change, negative = inhibition, active:
COc1ccc(/C=C/c2nc3ccccc3n2C)cc1 -88%
Oc1cccc(-c2nnc(-c3cccc(O)c3)nn2)c1 -66%
COC1=CC(=O)c2c(ccc3ncnc(N)c23)C1=O -57.8%
COc1ccc(OC)c(-c2cc(C(=O)Nc3c(C)nn(Cc4ccccc4)c3C)no2)c1 -53.8%
C/C(=N/OC(=O)c1ccc(C)cc1)c1cccs1 -79.9%
CN(C)c1ccc(Cc2cc3c(O)ccc(O)c3cc(Cc3ccc(N(C)C)cc3)c2=O)cc1 -56.4%
O=C1C(=O)c2ccc(-c3ccccc3)cc2-c2ccccc21 -63.4%
COc1ccc(N2C3=C(CC4=C2CCCC4=O)C(=O)CCC3)cc1 -56.3%
COc1cc(N/N=C/c2ccc(N(C)C)cc2)ncn1 -52.9%
CCOC(=O)C1=C(C)NC(C)=C(C(=O)OCC)C1c1ccncc1 -76.3%
Cc1ccc(C(=O)O/N=C(\N)c2ccccn2)cc1 -85.8%
O=C(O)c1cc(N2N=C(C(F)(F)F)/C(=C/C=C/c3ccco3)C2=O)ccc1Cl -66.7%
CCCN1C(=O)c2ccc(C(=O)Nc3cc(C)ccc3O)cc2C1=O -55.8%
O=C(O)c1ccc(N/N=C/c2ccc3c(c2)OCO3)cc1 -66.8%
CCc1cc(=O)oc2cc(C)c(CN3CCCC(C)C3)c(O)c12 (configuration not stated) -50.9%
Cc1cccc(C(=O)Nc2sc(C(=O)N3CCCC3)c(C)c2C#N)c1 -75.1%

Activity change, negative = inhibition, inactive:
Cc1nc(N2CCCC2)c2c(C(=O)Nc3ccc(C)c(Cl)c3)c(C)oc2n1 4.18%
COC(=O)c1ccc(N2NC(=O)/C(=C/c3ccc(-c4ccc(Cl)c(C(=O)O)c4)o3)C2=O)cc1 -13.7%
COc1ccc(-c2cc3ccccc3oc2=O)cc1NC(=O)c1ccc([N+](=O)[O-])o1 -5.92%
CCOCCCNC(=O)NC(CCC(C)C)c1c(-n2cccc2)sc2c1CCN(C)C2 (configuration not stated) -1.78%
CCCCCCCCN1C(=O)[C@@H](CC(=O)N2CCOCC2)C[C@@]2(C(=O)OC)C1=C[C@H](C(C)C)O[C@@H]2C1CC1 0.0592%
c1ccc(Cc2nnc3sc(-c4cccnc4)nn23)cc1 -1.09%
COc1ccc(C(=O)Nc2ccc(N3CCOCC3)cc2)cc1OC -12.3%
N#CN=C1SCCS1 3.1%
COc1cccc(OCCSc2nnc3sc4ccccc4n23)c1 4.82%
O=C(NCc1ccccc1C(F)(F)F)c1cccc2c1C(=O)c1ccc(N3CCCCC3)cc1S2(=O)=O -1.1%
Cc1cc(C)cc(-n2cccc2/C=C2/C(=N)N3C(=NC2=O)SN=C3S(C)(=O)=O)c1 -1.13%
Fc1ccc(Br)cc1C1C=C(c2ccc(Br)s2)Nc2ncnn21 (configuration not stated) 7.76%
CCc1nc2ccccc2c(C(=O)OCC(=O)Nc2ccc(S(=O)(=O)N3CCOCC3)cc2)c1C -16.5%
COc1ccccc1C(=O)NC(=S)Nc1cccc2cc(O)ccc12 3.8%
COCCCNC(=O)Cn1c(=O)n(Cc2ccc(C(=O)NCc3ccc(C)cc3)cc2)c(=O)c2ccccc21 -2.41%
OCCNC(=S)Nc1ccc(Cl)c(Cl)c1 1.62%
Cc1ccc(S(=O)(=O)N2CCCCC2)cc1NC(=O)Nc1ccc(Cl)cc1Cl 3.77%
O=c1cc(-c2ccc(O)cc2)oc2c(-c3c(O)cc(O)c4c(=O)cc(-c5ccc(O)cc5)oc34)c(O)cc(O)c12 -2.67%
COc1ccc(OC)c(NC(=O)CSc2nncc3ccccc23)c1 1.71%
CCCCCCCCn1ccc(=N)cc1 0.921%
COc1cccc(/C=N/NC(=O)C(C)Cn2cnc3ccccc32)c1 (configuration not stated) -2.94%
Cc1ccc(-n2c(SCc3cccc(F)c3)nc3ccccc3c2=O)cc1 2.3%
CCCOc1ccc(C(=O)NNC(=S)NC(=O)c2cc(-c3ccc(Cl)cc3)nc3ccccc23)cc1 -1.71%
